Laboratory results published in publication PMC6919601, “Identification of Plasmodium dipeptidyl aminopeptidase allosteric inhibitors by high throughput screening” (PLoS ONE, 2019).
Several values for one entry are separate records, joined by “and”; a condition that tells them apart may be missing. Equal entries are not always repeated. In all, about 110,000 compounds went through this assay and about 230 (0.21%) showed an effect of 50% or more. The list shows a part of the results.

target: DPAP1 (Plasmodium falciparum, UniProt Q8IIJ9); test: primary screen, percent inhibition; read by cleavage of a fluorogenic dipeptide substrate; higher = more effect of the substance; design: species or system P. falciparum D10 trophozoite lysates; single well
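Note: 30 min substrate incubation versus DMSO and 10 µM JCP410 controls.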

DPAP1, sequence (Q8IIJ9 whole entry, looked up): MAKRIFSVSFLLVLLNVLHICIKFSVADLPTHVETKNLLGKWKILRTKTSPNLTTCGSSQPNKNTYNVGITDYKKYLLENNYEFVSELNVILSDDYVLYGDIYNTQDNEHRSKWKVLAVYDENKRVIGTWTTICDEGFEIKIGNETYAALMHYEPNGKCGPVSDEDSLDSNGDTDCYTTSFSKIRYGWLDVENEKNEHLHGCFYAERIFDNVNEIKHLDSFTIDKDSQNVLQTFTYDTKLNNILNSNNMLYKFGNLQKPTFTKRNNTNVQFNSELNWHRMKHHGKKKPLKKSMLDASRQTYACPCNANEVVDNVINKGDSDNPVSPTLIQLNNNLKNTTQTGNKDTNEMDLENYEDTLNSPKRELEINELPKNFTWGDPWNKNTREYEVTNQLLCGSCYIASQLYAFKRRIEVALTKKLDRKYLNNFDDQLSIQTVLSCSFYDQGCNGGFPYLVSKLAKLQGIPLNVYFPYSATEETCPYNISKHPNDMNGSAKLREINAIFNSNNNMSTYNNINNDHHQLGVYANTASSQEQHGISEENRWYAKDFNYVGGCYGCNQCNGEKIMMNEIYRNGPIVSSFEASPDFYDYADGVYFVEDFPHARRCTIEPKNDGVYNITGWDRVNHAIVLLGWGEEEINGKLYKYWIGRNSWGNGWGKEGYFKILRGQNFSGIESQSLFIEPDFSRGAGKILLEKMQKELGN

| Compound | % Inhibition @ 10 uM |
| --- | --- |
| CS(=O)(=O)N1CCC(C(=O)Nc2ccc(F)c(Cl)c2)CC1 | 3.13% |
| O=[N+]([O-])c1ccc(N2CCN(Cc3cccc(C(F)(F)F)c3)CC2)cc1 | -0.0404% |
| O=S(=O)(NCc1nc2ccccc2[nH]1)c1ccc(Cl)c(Cl)c1 | -3.66% |
| Cc1cc(/C=C2/SC(=O)NC2=O)c(C)n1-c1ccncc1 | -0.891% |
| COc1ccc(CC(=O)N2N=C(c3ccncc3)CC2(O)C(F)(F)F)cc1OC (centres unmarked) | 1.92% and 2.08% |
| NC1=NC(=O)/C(=C/c2ccc(-c3cccc(C(=O)O)c3)o2)S1 | 1.13% |
| CCN(CC)C(=O)c1ccc(CS(=O)(=O)c2ccc(OC)cc2)o1 | 3.77% |
| CCc1ccc(OCC(=O)Nc2cccc(Cl)c2)cc1 | 7.67% |
| COc1ccc2nc(/N=C/c3nc(-c4ccc(Cl)cc4)oc3O)sc2c1 | -2.27% |
| COc1ccc(C2C3=C(O)CC(C)(C)CC3=NC3=C2C(=O)CC(C)(C)C3)cc1 (centres unmarked) | 4.67% |
| Cc1ccc(C(=O)c2oc3ccccc3c2NC(=O)C(C)(C)C)cc1 | 3.93% |
| COc1ccc2c(c1)-c1nc(NC(=O)c3cccs3)sc1CC2 | -1.27% |
| COc1ccc(-c2oc(=O)n(Cc3ccccc3)c2-c2ccc(OC)cc2)cc1 | -4.73% |
| CCN(C(=O)CC(C)C)c1nc(-c2ccc(Br)cc2)cs1 | -0.426% |
| N#CC1=C(N)N(c2ccc(F)cc2)C2=C(C(=O)CCC2)C1c1ccc(F)cc1 (centres unmarked) | -1.37% |
| CCOc1cccc(/C=C2\S/C(=N/c3ccc(OC)cc3)N(C)C2=O)c1O | 2.53% |
| O=S(=O)(c1cc(Cl)ccc1Br)N1CCCCC1 | -5.2% |
| Cc1cccn2cc(-c3ccc(Cl)cc3)cc12 | -0.736% |
| O=C(NCc1cccnc1)N1c2ccccc2Sc2ccccc21 | 1.57% |
| CCN(CC)S(=O)(=O)c1ccc(Cc2ccc(S(=O)(=O)N(CC)CC)cc2)cc1 | 8.97% |
| COc1ccc(CNC(=O)c2cc3c(s2)-c2ccccc2OC3)c(OC)c1 | -6.91% |
| CCOc1cccc(C(=O)Nc2nc(-c3ccc(S(=O)(=O)N4CCCC4)cc3)cs2)c1 | 5.92% |
| O=C(CN1CCCC1)Nc1c2c(nc3ccccc13)N(c1ccccc1)CC2 | 0.144% |
| Oc1ncnc2c1sc1nc(N3CCOCC3)c3c(c12)CCCC3 | 2.38% |
| O=C(Cc1ccc(Br)cc1)N1CCC(Cc2ccccc2)CC1 | -5.92% |
| Cc1ccc(-n2ncc3c(NCc4cccnc4)ncnc32)c(C)c1 | -6.12% |

| Compound | % Inhibition @ 10 uM |
| --- | --- |
| CC1CCN(c2nc3nonc3nc2Nc2ccc(F)cc2)CC1 | -2.03% |
| COc1cc(CN2CCN(C3CCCC3)CC2)cc(OC)c1OC | -3.83% |
| COc1cc(NS(=O)(=O)c2cc(Cl)ccc2Cl)c(OC)cc1Cl | -5.49% |
| CCOC(=O)c1cc2c(ccc3[nH]c(C)c(C)c32)nc1C | 2.62% |
| Cc1cc(C)c(C#N)c(SC2CCCCC2=O)n1 (centres unmarked) | 3.15% |
| Cc1nc(C23CC4CC(CC(C4)C2)C3)c(C)o1 | -0.712% |
| Cc1ccc(-n2nc(C)c(/C=N/c3ccc(C(=O)N(C)C)cc3)c2O)cc1C | 2.69% |
| COc1cccc2c(CO)ccc(OC)c12 | -1.84% |
| CCCCCCn1c(=O)c2c(nc(NCc3ccco3)n2C)n(C)c1=O | -1.72% |
| CCOc1cc(/C=C(\C#N)C(N)=O)ccc1OCc1cc(=O)n2nc(CC)sc2n1 | -0.495% |
| COc1ccc(S(=O)(=O)NC(C(=O)O)c2ccccc2)cc1 (centres unmarked) | -3.41% |
| CC1(C)CC(=O)C2=C(C1)OC1=C(C(=O)CC(C)(C)C1)C2c1ccc(-c2ccc3c(c2)COC3=O)o1 | -6.17% |
| CN(C)c1ccc(/C=C2/C(=O)NC(=O)N(c3ccccc3O)C2=O)cc1 | -0.712% |
| OC1CCCN(C2CCc3ccccc3C2)C1 (centres unmarked) | -5.44% |
| CCOc1cc(S(=O)(=O)NCc2ccccn2)ccc1Cl | -1.69% |
| Cc1ccc(CS(=O)Cc2ccc(C(=O)NCc3ccccc3C)o2)cc1 (centres unmarked) | 0.677% |
| Cc1cc(C)c2c(-n3cccc3)c(C(=O)N3CCN(C4CCCCC4)CC3)sc2n1 | 0.623% |
| Cc1ccccc1-n1c(SCc2cc(=O)n3ccccc3n2)nc2nnc(C)c-2c1N | -3.93% |
| O=C(CCNS(=O)(=O)c1ccc(Br)s1)NCc1ccc2c(c1)OCO2 | -0.601% |
| COCCCn1c(=N)c(C(=O)NCc2ccco2)cc2c(=O)n3cc(C)ccc3nc21 | 1.97% |
| O=C(Cn1cc(C(=O)c2ccccc2)c2ccccc21)NCc1ccco1 | 3.25% |
| C=CCNC(=O)COc1ccc2c(c1)C(=O)CC(C)(C)O2 | -5.2% |
| Cc1ccc(/C=C(\NC(=O)c2ccccc2)C(=O)NCCc2ccccn2)o1 | 1.35% |
| Cc1ccc(-c2nc(CS(=O)CC(=O)NCCCN3CCCCCC3)c(C)o2)cc1 (centres unmarked) | -4.71% |
| COc1ccc(Nc2cc(C)c3ccccc3n2)cc1 | -1.59% |
| CCn1c(C)c(C)c2cc(C(=O)NCC3CCCO3)ccc21 (centres unmarked) | 0.224% |

| Compound | % Inhibition @ 10 uM |
| --- | --- |
| Cc1cc(C)nc(NC(=O)c2ccc(C(C)(C)C)cc2)n1 | -4.59% |
| CC(C)(C)c1ccccc1NC(=O)NC12CC3CC(CC(C3)C1)C2 | -1.57% |
| CCCCCn1c(Br)nc2c1c(=O)[nH]c(=O)n2C | 4.41% |
| COc1ccc2[nH]cc(CCNS(=O)(=O)c3ccc(C)cc3)c2c1 | 1.7% |
| CCCn1c2ccccc2c2cnn(CC(=O)NCC3CCCO3)c(=O)c21 (centres unmarked) | -1.96% |
| COC(=O)c1nc2n(n1)C(c1cc(OC)c(OC)c(OC)c1)C=C(c1cccs1)N2 (centres unmarked) | -5.19% |
| COc1cc(NC(=O)CS(=O)(=O)c2ccc(C(F)(F)F)cc2Cl)c(OC)cc1Cl | -1.28% |
| Cc1ccc2c(c1)c1c(c(=O)n(Cc3ccccc3)c(=O)n1CC(=O)Nc1cc(C)[nH]n1)n2C | -1.01% |
| CN(C)/C=C1/C(=O)NC(=O)N(c2cccc(Cl)c2)C1=O | -4.21% |
| COc1cccc(C2C(C#N)=C(N)Oc3nc(SCc4ccccc4Cl)nc(N)c32)c1OC (centres unmarked) | 13.7% |
| Cc1ccc(C)c(NC(=O)Cn2nc(C(F)(F)F)cc2C2CC2)c1 | -3.71% |
| CSc1nnc(NC(=O)Cc2coc3c(C)c(C)ccc23)s1 | -6.04% |
| c1ccc(CN2CCC(NCCN3CCOCC3)CC2)cc1 | -3.6% |
| COc1ccc2nc(N3C(=O)CC(Cc4ccc(Cl)cc4)C3=O)sc2c1 (centres unmarked) | -3.28% |
| C=CCN1C(=O)S/C(=C/c2ccc(OC)c(OC)c2OC)C1=O | 3.93% |
| Cc1nn(C(=O)c2ccncc2)c(C)c1Sc1ccc(Cl)cc1 | -1.6% |
| CCN(CC)CCCOc1ccccc1Cl | 6.08% |
| CCN(CC)CCN(CC)Cc1ccc(F)cc1F | -5.44% |
| CCN(Cc1ccncc1)C(=S)NCCc1ccccc1 | -4.35% |
| CC(NC(=O)C1CCCN1S(=O)(=O)c1cccc2cccnc12)c1ccccc1 (centres unmarked) | -4.21% |
| Cc1cc(C)n(-c2nncc(-c3ccccc3)n2)n1 | -2.97% |
| Nc1ccc(C23CC4CC(CC(O)(C4)C2)C3)cc1 | -0.637% |
| CCOC(=O)C1=C(CNC2CCCCC2)NC(=O)NC1c1ccc(C)cc1 (centres unmarked) | -1.03% |
| CC(C)(C)c1cn(-c2ccc(Cl)cc2)c(S)n1 | -4.01% |
| COc1ccc2c(c1)C(=O)Cc1ccccc1S2 | -1.91% |
| Cc1oc(-c2ccccc2F)nc1CS(=O)CC(=O)NCCCOC(C)C (centres unmarked) | -2.85% |

| Compound | % Inhibition @ 10 uM |
| --- | --- |
| CCn1ncc(Cl)c1C(=O)Nc1ccccc1C(F)(F)F | 5.59% |
| CCc1ccc(CNC(=O)Cn2nc(C)c3c(C)n(-c4ccccc4)nc3c2=O)cc1 | -6.53% |
| Cc1ccc2c(c1)C(O)(CC(=O)c1ccccn1)C(=O)N2 (centres unmarked) | -6.36% |
| CCCCSc1ccc(NC2=NS(=O)(=O)c3ccccc32)cc1 | -3.39% |
| CCOc1cc2c(cc1OC)C(c1ccc3c(c1)OCO3)NCC2 (centres unmarked) | 4.3% |
| O=C(NCCc1ccc(Cl)cc1)c1ccc(CS(=O)(=O)c2ccc(Br)cc2)o1 | -1.28% |
| Cc1ccc(C2C3=C(O)CC(c4ccccc4)CC3=Nc3nc(C(F)(F)F)nn32)cc1 (centres unmarked) | -1.72% |
| CCOc1ccc(C(=O)N2CCC(c3nc(O)c4nnn(Cc5ccc(C)cc5)c4n3)CC2)cc1 | 14.8% |
| O=C(Cn1c(=O)sc2ccccc21)OCCF | 5.06% |
| CC(=O)CN1CCn2c3c(c4cc(C)ccc42)CCCC31 (centres unmarked) | 5.16% |
| COCCCNC(C)Cc1ccc(F)cc1 (centres unmarked) | -3.15% |
| COc1ccc(C2Nc3ccccc3N=C3CC(C)(C)CC(O)=C32)cc1 (centres unmarked) | 2.26% |
| FC(F)(F)c1nnc2sc(Cc3ccccc3)nn12 | 2.29% |
| CCCCNC(=O)c1noc2c1CCc1cc(OC)ccc1-2 | -5.09% |
| CCOC(=O)C(O)(c1ccc(NC(C)C)cc1)C(F)(F)F (centres unmarked) | 1.57% |
| O=C1CCCN1CCSC(=S)N1CCCC1 | 6.56% |
| CCOCCCNC(=O)Cn1c2ccccc2c2cnnc(O)c21 | -3.79% |
| Cc1ccc(-c2nc(O)c3ccccc3n2)cc1 | 2.01% |
| CCc1ccc(OCC(=O)NCc2ccc3c(c2)OCO3)cc1 | -3.04% |
| Cc1ccc(NC(=O)CC2SC(Nc3ccccc3)=NC2=O)c(C)c1 (centres unmarked) | 2.43% |
| COC(=O)C1=C(C)N=c2s/c(=C\c3ccc(C)cc3)c(=O)n2C1/C=C/c1ccccc1 (centres unmarked) | -7.06% |
| Cc1cc(C)nc(N2CCN(c3cc(C)c(C#N)c4nc5ccccc5n34)CC2)n1 | -1.33% |
| O=C(NCc1nc(-c2ccccc2)no1)c1ccc2c(c1)OCO2 | -2.99% |
